Hit rate of the full screen: of about 310,000 compounds, about 14,000 (4.5%) showed an effect of 50% or more. Effects have a minus sign here. Some of the results follow.
Biological target: human ether-à-go-go-related gene (hERG) potassium channel (human, UniProt Q12809)
Experiment: primary screen, population patch clamp on CHO cells stably expressing hERG
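Note: peak tail current of the secondary pulse compared with the same well before compound.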

Chain of human ether-à-go-go-related gene (hERG) potassium channel (Q12809 whole entry, looked up): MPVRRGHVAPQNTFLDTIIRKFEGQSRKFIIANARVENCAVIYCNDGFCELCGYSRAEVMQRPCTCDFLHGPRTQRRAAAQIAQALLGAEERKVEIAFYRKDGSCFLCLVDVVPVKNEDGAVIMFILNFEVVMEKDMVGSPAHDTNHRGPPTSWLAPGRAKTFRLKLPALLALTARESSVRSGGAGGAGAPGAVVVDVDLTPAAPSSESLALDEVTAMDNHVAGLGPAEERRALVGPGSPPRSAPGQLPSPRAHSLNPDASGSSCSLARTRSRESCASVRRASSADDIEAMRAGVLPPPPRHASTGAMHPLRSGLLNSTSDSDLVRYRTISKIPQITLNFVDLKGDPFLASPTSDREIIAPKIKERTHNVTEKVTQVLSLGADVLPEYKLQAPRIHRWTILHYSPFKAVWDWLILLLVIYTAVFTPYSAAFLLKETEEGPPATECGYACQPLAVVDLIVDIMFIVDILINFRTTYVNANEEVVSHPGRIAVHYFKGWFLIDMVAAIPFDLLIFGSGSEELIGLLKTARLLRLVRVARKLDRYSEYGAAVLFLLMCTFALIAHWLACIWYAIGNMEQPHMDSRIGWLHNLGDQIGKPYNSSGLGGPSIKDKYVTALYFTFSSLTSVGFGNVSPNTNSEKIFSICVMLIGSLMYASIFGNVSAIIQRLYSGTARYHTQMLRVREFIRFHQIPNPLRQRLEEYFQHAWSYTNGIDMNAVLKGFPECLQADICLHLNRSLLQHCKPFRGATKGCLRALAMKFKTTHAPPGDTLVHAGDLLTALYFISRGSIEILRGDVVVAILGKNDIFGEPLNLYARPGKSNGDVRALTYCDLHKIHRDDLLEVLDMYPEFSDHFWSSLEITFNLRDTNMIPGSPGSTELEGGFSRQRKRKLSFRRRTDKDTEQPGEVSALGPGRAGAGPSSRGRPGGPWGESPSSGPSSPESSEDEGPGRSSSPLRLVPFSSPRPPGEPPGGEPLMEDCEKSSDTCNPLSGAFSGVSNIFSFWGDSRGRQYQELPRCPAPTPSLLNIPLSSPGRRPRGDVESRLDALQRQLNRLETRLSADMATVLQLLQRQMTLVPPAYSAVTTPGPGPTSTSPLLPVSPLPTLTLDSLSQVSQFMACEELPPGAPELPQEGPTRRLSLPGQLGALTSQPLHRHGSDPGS

Row | SMILES | hERG current change (%, negative = inhibition) at 10uM [%]
1 | Cc1cnc(NC(=O)CSc2nnc3ncccn23)s1 | 6.32
2 | CCCC1=[N+](CC(=O)c2ccccc2)CCn2cccc21.[Br-] | 10.7
3 | CCCCNC(=O)N1CCN(C(c2ccccc2)c2ccccc2)CC1 | 3.49
4 | COc1cc(/C=N/O)cc(Br)c1OCc1ccc(Cl)cc1 | 4.06
5 | N=c1c(S(=O)(=O)c2ccc(Br)cc2)cc2c(=O)n3ccccc3nc2n1Cc1ccccc1 | 27
6 | CSCc1ccc(C(=O)NC(C)c2ccc(-n3ccnc3)cc2)cc1 (centres unmarked) | -56
7 | CCOC(=O)Nc1ccc2c(c1)N(C(=O)CN(C)C)c1ccccc1CC2.Cl | -7.94
8 | CCN(CC)c1ccc(N=Cc2cc(Br)ccc2O)cc1 | 14.1
9 | CN1CCCC(OC(=O)c2cc(F)c(F)c(F)c2F)C1.Cl (centres unmarked) | 10.5
10 | CCN(C(=O)CSc1nnc(COc2ccccc2F)n1N)C1CCS(=O)(=O)C1 (centres unmarked) | 20.7
11 | CCOc1ccccc1NC(=O)C(OC(=O)c1ccccc1O)c1ccccc1 (centres unmarked) | 12.5
12 | CCN(CCCNC(=O)COc1cc(=O)n(CC)c2ccccc12)Cc1ccccc1 | -19.8
13 | CCc1ccc(-c2cc(C(=O)NN3CCOCC3)c3ccccc3n2)s1 | -23.1
14 | COc1ccc(-c2nnn(CC(=O)N(Cc3ccccc3Cl)C(C(=O)NCC3CCCO3)c3ccco3)n2)cc1OC (centres unmarked) | 20.8
15 | Cc1ccc(N2CC(C(=O)N3CCOCC3)CC2=O)cc1Cl (centres unmarked) | 5.47
16 | Cc1ccc(S(=O)(=O)NC2CC2)s1 | 2.73
17 | O=C(Cc1c(F)cccc1Cl)Nc1ccccc1C(=O)N1CCCCC1 | -3.39
18 | Cc1ccc(S(=O)(=O)N2CCCCC2)cc1NC(=O)COC(=O)c1ccc(=O)[nH]c1 | 3.23
19 | Cc1ccnc(SCCn2c(N3CCN(Cc4ccccc4)CC3)nc3c2c(=O)[nH]c(=O)n3C)n1 | -36.5
20 | CCOC(=O)Cn1c(=O)oc2cc(S(=O)(=O)N(CCN(C)C)Cc3ccccc3)ccc21 | -25.8
21 | Cl.O=C(CCN1CCCC1)Nc1ccccc1 | 4.69
22 | COc1ccccc1Oc1c(C)oc2cc(OC(=O)c3ccco3)ccc2c1=O | -19.5

Row | SMILES | hERG current change (%, negative = inhibition) at 10uM [%]
23 | CCc1nnc(SCC(=O)Nc2ccc(F)cc2)o1 | 10.3
24 | C=CCOc1ccc(/C=N/O)cc1Cl | 4.43
25 | O=C1C=C(NCc2ccc(Cl)c(Cl)c2)CC1 | -17.5
26 | O=C(NNS(=O)(=O)c1ccccc1[N+](=O)[O-])c1cc2ccccc2cc1O | -10.9
27 | COc1ccccc1/C=C(/CC(=O)NCc1ccc2c(c1)OCO2)c1nc2ccccc2s1 | 8.8
28 | O=C(NCCc1ccccc1)c1ccc(-c2ccccc2C(F)(F)F)o1 | -10.9
29 | COc1ccc(N2CCN(CC(=O)NC(=O)NCc3ccccc3)CC2)cc1 | 10.4
30 | N#Cc1c(-n2cccc2C=O)sc2c1CCCC2 | -12.9
31 | COC(=O)C1=C(CCc2ccccc2)NC(=O)NC1c1ccc(Cl)cc1 (centres unmarked) | -9.59
32 | O=C(NC1CN2CCC1CC2)c1cccc(Cl)c1 (centres unmarked) | 3.72
33 | CN(C)S(=O)(=O)c1cccc(CNCC2COc3ccccc3O2)c1.O=C(O)C(=O)O (centres unmarked) | -13.8
34 | CNC(=S)Nc1cc(Cl)ccc1Oc1ccccc1 | -6.86
35 | COc1ccc([C@H]2[C@H](C(=O)C(C)(C)C)N3N=Cc4ccccc4C3[C@]23N=C(c2ccccc2)OC3=O)cc1OC (some centres unmarked) | 2.55
36 | CC1=NCCN1CCNC(=O)Nc1ccc(F)cc1 | 7.18
37 | c1ccc(N2CCN(Cc3cn4cccnc4n3)CC2)cc1 | 11.2
38 | CCC(=O)N1CCc2cc(S(=O)(=O)CCC(=O)NCc3ccc(OC)cc3)ccc21 | 8.16
39 | CCCCN=Cc1sc2ccc(OCC)cc2c1O | 3.66
40 | O=C(NC(=S)N1CCOCC1)c1cc2ccccc2o1 | 12.7
41 | Cc1cccc(NC(=O)CSc2nnc(C)c(=O)n2N)c1C | 9.09
42 | CC1(OC(=O)c2ccc(Cl)nc2)C(=O)C=C2C=C(c3ccsc3)OC=C2C1=O (centres unmarked) | 9.98
43 | COc1ccc(NC(=O)CN(C)C(=O)c2cc3c(cc2Cl)N2CCCCCC2=NS3(=O)=O)cc1 | 17.3
44 | NC(=O)c1noc(C(=O)N(CC(=O)NC2CCCC2)Cc2ccc3c(c2)OCO3)c1N | -7.94

Row | SMILES | hERG current change (%, negative = inhibition) at 10uM [%]
45 | O=C(NN1C(=O)C2C(c3ccccc3)C=CC(c3ccccc3)C2C1=O)c1ccccc1 (centres unmarked) | 10.2
46 | CCOC(=O)N1CCN(C(=O)c2ccc(CN(c3ccc(C)c(C)c3)S(C)(=O)=O)cc2)CC1 | -18
47 | CCC(C)NCCOCCOc1ccc(Cl)c2ccccc12.O=C(O)C(=O)O (centres unmarked) | -32.2
48 | CSCC[C@H](NC(=O)[C@H](Cc1ccccc1)n1c(=O)[nH]c2ccccc2c1=O)C(=O)N[C@@H](Cc1ccccc1)C(=O)O | 17
49 | COc1ccc(CNC(=S)N/N=C(\C)c2ccc(OC)cc2)cc1 | 2.51
50 | COc1ccc(CN2CCC(N3CC(C)OC(C)C3)CC2)c(OC)c1.O=C(O)C(=O)O (centres unmarked) | -1.98
51 | CCc1cc(=O)oc2cc(OCC(=O)N3CCC(C(=O)O)CC3)ccc12 | 7.74
52 | CCOC(=O)Cn1c(C)c(Br)c(COC)c(C#N)c1=O | 5.71
53 | O=C(/C=C/c1cccc([N+](=O)[O-])c1)NCCSCc1ccc(Cl)cc1 | -13.1
54 | CCOC(=O)C1CCN(C(=O)C2CCC(=O)N(CC3CCCCC3)C2)CC1 (centres unmarked) | 0.313
55 | CSc1oc(-c2ccco2)nc1S(=O)(=O)c1ccc(C)cc1 | 11.6
56 | CCOc1ccc(C(=O)NC(=S)Nc2ccccc2N2CCC(C)CC2)cc1[N+](=O)[O-] | 5.75
57 | COc1cccc(C2=NN(C(C)=O)C(c3cccs3)C2)c1 (centres unmarked) | 10.7
58 | C/C(=N/NC(=O)CNC(=O)Cc1ccc(Cl)cc1)c1ccco1 | 4.04
59 | O=C1CNC(=S)N1CCc1ccccc1Cl | 7.27
60 | COc1ccc(-c2c(C(F)(F)F)oc3cc(OCC(=O)Nc4ccccc4C(F)(F)F)ccc3c2=O)cc1OC | 4.91
61 | C=Cn1cc[n+](CC(=O)c2ccc(-c3ccccc3)cc2)c1.[Br-] | 7.91
62 | O=C(Cn1c(-c2ccccc2Cl)nc2ccccc21)Nc1cccc(Cl)c1 | 0.898
63 | Cc1ccnc(S(=O)(=O)Cc2ccc([N+](=O)[O-])cc2)n1 | 20
64 | CS(=O)(=O)c1ccc2nc(NC(=O)Nc3cccc(Cl)c3)sc2c1 | -5.84
65 | CCOc1ccc(-c2ccc(SCC)nn2)cc1 | 22.8
66 | O=C(c1ccc(Cl)c(Cl)c1)c1cnc(Nc2ccccc2)s1 | 27.5

Row | SMILES | hERG current change (%, negative = inhibition) at 10uM [%]
67 | CN(C)S(=O)(=O)c1cccc(C(=O)N2CCN(Cc3ccccc3)CC2)c1 | 6.78
68 | COc1ccc(C(=O)[C@H]2[C@H]3C(=O)N(c4ccc(C)cc4)C(=O)[C@H]3C3C=CC=NN32)cc1 (some centres unmarked) | -6.9
69 | CCO[C@@H]1OC(C(=O)NC2CC2)=C[C@H](c2csc3ccccc23)[C@H]1CCCO | -21.4
70 | CN(C(=O)CN1C(=O)S/C(=C\c2cccc(Cl)c2)C1=O)C1CCS(=O)(=O)C1 (centres unmarked) | -25.8
71 | Cc1cccc(NC(=O)Nc2ccc(C#N)cc2)n1 | 8.42
72 | COC(=O)c1cn(NC(=O)c2ccc(OC)c(OC)c2)c(=O)c2ccccc12 | -10.9
73 | CCOCCCNC(=O)c1ccc(CS(=O)(=O)c2cccc(C(F)(F)F)c2)o1 | 6.78
74 | COc1ccc(C(=O)NCCOc2ccccc2)cc1S(=O)(=O)N1CCOCC1 | -32.3
75 | Cc1cccn2c(=O)c3cc(S(=O)(=O)c4ccccc4)c(=N)n(Cc4ccco4)c3nc12 | -0.654
76 | N#CCC(=O)N1CCN(C=O)CC1 | 7.8
77 | COC(=O)/C(=C\Nc1ccc(OC)cc1)NC(=O)c1ccc(Cl)cc1Cl | -17.7
78 | O=C(CCCCl)NC(=S)Nc1cc(C(F)(F)F)ccc1N1CCOCC1 | -47.6
79 | COc1ccc(S(=O)(=O)NCCSc2ccc(C)cc2)cc1OC | -23.2
80 | CCOC(=O)C1(C(F)(F)F)N=C(c2cccnc2)OC(N2CCCCC2)=N1 (centres unmarked) | 6.89
81 | O=C(NC1CC2CCC1C2)c1ccc(CN2CCOCC2)cc1 (centres unmarked) | 6.27
82 | O=c1c2c3c(sc2n2cnnc2n1CCc1ccccc1)CCCC3 | -20.5
83 | O=C1C=C(c2cccc(O)c2)CCC1 | 9.21
84 | C#CC(CC)(CC)NC(=S)Nc1ccc(S(N)(=O)=O)cc1 | -0.342
85 | O=C(CC(=O)c1ccccc1)Nc1cc([N+](=O)[O-])ccc1Cl | 8.83
86 | O=C1NCCN(Cc2cccc(Oc3ccccc3)c2)C1CC(=O)N1CCCCC1 (centres unmarked) | -0.741

Source: PMC4336329 (PLoS ONE, 2015)
